For one molecule, binding results are on record in PMC6648895.

Chains of the proteins cited; added tags and fusions are not shown.
UniProt P0CX27: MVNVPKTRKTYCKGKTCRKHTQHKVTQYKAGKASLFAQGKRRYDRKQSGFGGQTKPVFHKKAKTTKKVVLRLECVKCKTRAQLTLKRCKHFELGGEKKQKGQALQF
UniProt P04650: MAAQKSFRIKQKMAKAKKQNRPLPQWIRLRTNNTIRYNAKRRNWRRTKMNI

No constants are given. Whether binding was seen depends on the method and setting. Some results given as binding are weak or reduced against the parent protein; the word gives no strength. Where a sequence is shown, tags or fusion partners need not be part of it.

Experiment [1] addresses T1, Rps6 N-terminal domain plus loop (residues 1–181), Gal4 DNA-binding domain fusion (S. cerevisiae) (UniProt P0CX37).
T1 sequence: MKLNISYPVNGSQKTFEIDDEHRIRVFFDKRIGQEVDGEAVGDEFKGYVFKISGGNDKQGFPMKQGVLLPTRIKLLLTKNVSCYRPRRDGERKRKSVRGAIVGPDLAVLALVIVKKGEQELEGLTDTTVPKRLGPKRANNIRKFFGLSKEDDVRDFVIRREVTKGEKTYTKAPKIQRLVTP
Briefly: two-hybrid; reporter strain PJ69-4A; bait fused to Gal4 DNA-binding domain (c-Myc), prey fused to Gal4 activation domain (HA); HIS3 reporter for weak, ADE2 reporter for strong interactions; plates 30°C, 3 days.

Experiment [2] concerns the target T2, Rpl41, Gal4 domain fusion (S. cerevisiae) (UniProt P0CX86).
T2 sequence: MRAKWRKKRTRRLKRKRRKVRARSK
The experiment is described as above.

Experiment [3] has as its target T3, Rps3, Gal4 domain fusion (S. cerevisiae) (UniProt P05750).
T3 sequence: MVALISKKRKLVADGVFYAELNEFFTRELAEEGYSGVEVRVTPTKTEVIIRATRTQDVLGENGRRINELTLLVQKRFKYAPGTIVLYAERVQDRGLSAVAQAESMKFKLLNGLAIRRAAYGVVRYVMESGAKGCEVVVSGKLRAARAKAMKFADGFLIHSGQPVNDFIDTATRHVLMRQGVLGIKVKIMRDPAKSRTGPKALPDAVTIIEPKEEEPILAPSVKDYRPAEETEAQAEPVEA
The description is as above.

Experiment [4] has as its target Rpl42, Gal4 DNA-binding domain fusion (S. cerevisiae) (UniProt P0CX27). The description is as above.
Experiment [5] has as its target T4, Rps6, Gal4 DNA-binding domain fusion (full-length) (S. cerevisiae) (UniProt P0CX37).
T4 sequence: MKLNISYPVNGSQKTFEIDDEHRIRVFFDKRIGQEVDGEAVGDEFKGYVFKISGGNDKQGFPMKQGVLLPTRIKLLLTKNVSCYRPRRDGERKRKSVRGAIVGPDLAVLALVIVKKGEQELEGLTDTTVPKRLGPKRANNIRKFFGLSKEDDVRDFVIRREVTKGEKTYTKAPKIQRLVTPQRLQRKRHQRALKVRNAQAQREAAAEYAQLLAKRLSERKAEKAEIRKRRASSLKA
The description is as above.

The target in experiment [6] is Rpl39, Gal4 DNA-binding domain fusion (S. cerevisiae) (UniProt P04650). The experiment is described as above.
Experiment [7] concerns the target T5, Rps6 loop region plus C-terminal domain (residues 117–236), Gal4 DNA-binding domain fusion (S. cerevisiae) (UniProt P0CX37).
T5 sequence: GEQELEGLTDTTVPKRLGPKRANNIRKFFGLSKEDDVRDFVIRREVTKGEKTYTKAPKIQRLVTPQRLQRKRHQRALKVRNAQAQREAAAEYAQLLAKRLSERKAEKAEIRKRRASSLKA
Described as above.

For experiment [8], the target named is T6, Rpl18, Gal4 domain fusion (S. cerevisiae) (UniProt P0CX49).
T6 sequence: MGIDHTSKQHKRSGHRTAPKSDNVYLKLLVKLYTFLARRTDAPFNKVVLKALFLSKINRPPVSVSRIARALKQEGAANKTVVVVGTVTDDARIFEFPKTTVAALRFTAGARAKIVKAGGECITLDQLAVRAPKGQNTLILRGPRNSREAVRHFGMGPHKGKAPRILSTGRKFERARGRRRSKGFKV
The description is as above.

For experiment [9], the target named is T7, Rps6 C-terminal domain (residues 176–236), Gal4 DNA-binding domain fusion (S. cerevisiae) (UniProt P0CX37).
T7 sequence: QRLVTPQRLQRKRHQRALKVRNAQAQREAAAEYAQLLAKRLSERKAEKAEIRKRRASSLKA
The experiment is described as above.

Experiment [10] addresses Rpl42, Gal4 DNA-binding domain fusion (S. cerevisiae) (UniProt P0CX27). The experiment can be described thus: two-hybrid; competition: PJ69-4A carrying high-copy URA3 plasmid pADH195-RPS6A or empty YEplac195, co-transformed with bait and prey plasmids; media additionally lacking uracil.
The target of experiment [11] is Rpl39, Gal4 DNA-binding domain fusion (S. cerevisiae) (UniProt P04650). Described as above.

B1: Nap1, Gal4 activation domain fusion (full-length) (protein, UniProt P25293 1-417)
chain: MSDPIRTKPKSSMQIDNAPTPHNTPASVLNPSYLKNGNPVRAQAQEQDDKIGTINEEDILANQPLLLQSIQDRLGSLVGQDSGYVGGLPKNVKEKLLSLKTLQSELFEVEKEFQVEMFELENKFLQKYKPIWEQRSRIISGQEQPKPEQIAKGQEIVESLNETELLVDEEEKAQNDSEEEQVKGIPSFWLTALENLPIVCDTITDRDAEVLEYLQDIGLEYLTDGRPGFKLLFRFDSSANPFFTNDILCKTYFYQKELGYSGDFIYDHAEGCEISWKDNAHNVTVDLEMRKQRNKTTKQVRTIEKITPIESFFNFFDPPKIQNEDQDEELEEDLEERLALDYSIGEQLKDKLIPRAVDWFTGAALEFEFEEDEEEADEDEDEEEDDDHGLEDDDGESAEEQDDFAGRPEQAPECKQS
In the case of B1, the binding entry in [1] is given as “binds”; in [2] it was “no binding”; in [3] it was “no binding”; in experiment [4], “binds”; in [5], “binds”; in experiment [6], “binds”. For the same molecule, the binding entry in [7] is reported as “binds”; in [8], “no binding”; in experiment [9], “binds”; in experiment [10] it was “binds”; in experiment [11], “binds”.
